The values that follow come from paper PMC4336329 (PLoS ONE, 2015).

The whole screen tested about 310,000 compounds, of which about 2,200 (0.71%) showed an effect of 50% or more. The effect is printed as a negative number. This is one part of the list.

The target in this experiment is human ether-à-go-go-related gene (hERG) potassium channel (human, UniProt Q12809). Nature of the experiment: primary screen, population patch clamp on CHO cells stably expressing hERG.
Sequence of human ether-à-go-go-related gene (hERG) potassium channel (Q12809 whole entry, looked up): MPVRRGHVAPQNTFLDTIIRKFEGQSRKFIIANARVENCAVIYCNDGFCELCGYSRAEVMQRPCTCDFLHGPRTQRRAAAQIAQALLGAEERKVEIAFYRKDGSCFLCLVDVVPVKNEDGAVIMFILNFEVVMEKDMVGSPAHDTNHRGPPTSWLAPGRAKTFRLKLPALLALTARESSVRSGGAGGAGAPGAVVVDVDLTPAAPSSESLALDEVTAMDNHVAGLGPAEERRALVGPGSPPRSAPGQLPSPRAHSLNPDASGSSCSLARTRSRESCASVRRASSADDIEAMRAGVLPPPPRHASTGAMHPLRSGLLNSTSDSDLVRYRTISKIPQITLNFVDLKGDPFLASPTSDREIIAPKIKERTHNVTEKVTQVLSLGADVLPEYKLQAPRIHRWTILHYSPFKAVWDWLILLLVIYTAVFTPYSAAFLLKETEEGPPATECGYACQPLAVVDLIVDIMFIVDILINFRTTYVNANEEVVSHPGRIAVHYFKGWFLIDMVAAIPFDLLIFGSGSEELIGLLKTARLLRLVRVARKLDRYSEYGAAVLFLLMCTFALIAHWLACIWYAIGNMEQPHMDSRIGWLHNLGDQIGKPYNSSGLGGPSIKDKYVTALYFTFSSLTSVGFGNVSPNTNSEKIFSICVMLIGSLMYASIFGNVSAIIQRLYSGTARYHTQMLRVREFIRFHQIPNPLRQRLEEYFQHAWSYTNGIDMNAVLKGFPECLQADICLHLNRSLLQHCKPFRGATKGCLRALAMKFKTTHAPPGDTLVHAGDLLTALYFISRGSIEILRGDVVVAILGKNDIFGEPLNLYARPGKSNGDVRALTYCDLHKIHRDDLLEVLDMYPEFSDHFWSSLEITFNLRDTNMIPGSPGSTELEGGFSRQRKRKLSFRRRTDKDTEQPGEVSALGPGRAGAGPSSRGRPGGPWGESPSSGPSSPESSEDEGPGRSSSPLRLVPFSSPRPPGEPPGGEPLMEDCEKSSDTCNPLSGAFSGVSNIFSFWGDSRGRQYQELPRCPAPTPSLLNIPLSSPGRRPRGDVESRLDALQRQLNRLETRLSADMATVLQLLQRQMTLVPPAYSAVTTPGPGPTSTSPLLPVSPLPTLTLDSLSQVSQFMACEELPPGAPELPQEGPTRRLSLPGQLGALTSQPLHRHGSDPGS
On to `Cc1ccc(S(=O)(=O)N(C)C)cc1NC(=O)c1ccc(-n2cncn2)c([N+](=O)[O-])c1`, for which the “hERG current change (%, negative = inhibition) at 1uM” value is -13.8%.
The same measure for `CCc1ccccc1N1CN(Cc2cccnc2)CNC1=S`: 14.1%; for `O=C(Cc1ccccc1)NCc1n[nH]c(=S)n1-c1ccc(Br)cc1`: 9.36%.
The same measure for `CCSc1nc(O)c(C2OC(=O)c3c2ccc(OC)c3OC)c(=O)n1CC` (stereo not shown): 2.3%; for `O=C(O)CCN1C(=O)c2ccc(NC(=O)Cc3ccc(Cl)cc3)cc2C1=O`: 3.7%.
As to `COc1cc(NC(=O)c2ccc(Cl)cc2)c(OC)cc1NC(=O)CN1CCCCC1.Cl`, the “hERG current change (%, negative = inhibition) at 1uM” value is given as 10.4%.
Under `CCCCCCCCN1C(=O)N(C)C(N(O)C(=O)NC)C1(C)C` (stereo not shown) stands 15%; under `COc1nnc(-c2ccc(N3CCOCC3)c(NC(=O)c3ccco3)c2)c2ccccc12`, -1.48%.
For the compound `O=C(CCNS(=O)(=O)c1cccs1)N1CCN(c2ccc(F)cc2)CC1`, the “hERG current change (%, negative = inhibition) at 1uM” value is given as 11.6%.
Under `Cc1cc(/C=C2/C(=O)NC(=O)N(Cc3ccco3)C2=O)c(C)n1-c1ccccc1O` stands 5.38%; under `Cc1cc(C)c(NC(=O)C2CSCCS2)c(C)c1` (stereo not shown), -1.7%.
As for `O=C(CN1CCN(c2ccccn2)CC1)Nc1ccc(Oc2ccccc2)cc1`, the “hERG current change (%, negative = inhibition) at 1uM” value is 7.89%.
The same measure for `Cc1ccc(CCNC(=O)C(C)n2nc(C)c3c(C)n(-c4ccccc4)nc3c2=O)cc1` (stereo not shown): -6.35%; for `O=C(O)c1ccccc1Nc1ccc([N+](=O)[O-])cc1`: 10.3%.
Turning to `CCOC(=O)c1c(C)[nH]c(C(=O)OCC(=O)Nc2cc(C)c(Cl)cc2OC)c1C`, the “hERG current change (%, negative = inhibition) at 1uM” value is given as 15.3%.
Consider `Cc1ccc(S(=O)(=O)Nc2cccc(C(=O)NCCCN3CCCC3=O)c2)cc1F`, for which the “hERG current change (%, negative = inhibition) at 1uM” value is 8.25%.
Under `CCOC(=O)N1CCN(C(=O)C(NC(=O)C2CCC(C)CC2)C(C)C)CC1` (stereo not shown) stands 11.9%.
As to `CCc1nnc(NC(=O)CSc2nnc(-c3cccnc3)n2C)s1`, the “hERG current change (%, negative = inhibition) at 1uM” value is 5.09%.
Under `O=S(=O)(NCCOc1ccccc1F)c1cccc(Br)c1` stands 17.4%; under `CC(OC(=O)CCN1C(=O)c2cccc([N+](=O)[O-])c2C1=O)C(=O)Nc1cc(Cl)cc(Cl)c1` (stereo not shown), -7.46%; under `COc1ccc(CN2CCCC(C(=O)N3CCCC3)C2)cc1.O=C(O)C(=O)O` (stereo not shown), -15.8%.
As for `COCCCn1c(SCC(=O)Nc2ccccc2)nnc1-c1ccncc1`, the “hERG current change (%, negative = inhibition) at 1uM” value was -0.44%.
Regarding `Cc1ccccc1NC(=O)CN1C(=O)COc2ccc(S(=O)(=O)N3CCCC3)cc21`, the “hERG current change (%, negative = inhibition) at 1uM” value turned out to be 14.1%.
Under `O=[N+]([O-])c1ccc2c(c1N1CCCCC1)=NC1(CCCCC1)[N+]=2[O-]` stands 8.55%.
Under `CSc1ccccc1NC(=O)Cn1ccsc1=N` stands 27.7%; under `COc1ccc(C(=O)Nc2ccc3ccccc3c2)cc1`, 15.1%; under `Cc1ccc(S(=O)(=O)N(CCO)Cc2cc3ccc(C)c(C)c3[nH]c2=O)cc1`, 4.28%.
Under `C=CCNC(=O)/C(C#N)=C\c1cc(Cl)c(OCC)c(OC)c1` stands 10.9%.
Take `Cc1ccc(S(=O)(=O)Nc2ccc(NC(=O)CN3CCCCC3)c(Cl)c2)cc1`: the “hERG current change (%, negative = inhibition) at 1uM” value is 18.4%.
The same measure for `Cc1ccc(S(=O)(=O)N2CCOCC2)cc1NC(=O)COC(=O)Cn1c(C)csc1=O`: 14.4%; for `O=S(=O)(NCCn1cccc1)c1ccc2ccccc2c1`: 12.9%.
As for `Cc1ccccc1NC(=O)Cc1nc(COC(=O)c2cccc([N+](=O)[O-])c2)cs1`, the “hERG current change (%, negative = inhibition) at 1uM” value is recorded as 9.54%.
Take `Cc1cc(C)n(-c2nc(SCC(=O)O)c3c4c(sc3n2)CCCC4)n1`: the “hERG current change (%, negative = inhibition) at 1uM” value was found to be 10.6%.
Under `COCCn1c(Cc2cccn2C)nnc1SCC(=O)Nc1nccs1` stands 3.63%; under `CCOC(=O)Cn1cc(C(=O)C2CC2)c2ccccc21`, -4.21%.
For `COc1cccc(COC(=O)C2CCN(S(=O)(=O)c3ccc(C)cc3)CC2)c1OC`, the “hERG current change (%, negative = inhibition) at 1uM” value is on record as 13.6%.
The same measure for `O=C(CCl)N1CCN2C(=O)c3ccccc3C12c1ccc(Cl)cc1` (stereo not shown): 9.81%; for `COc1ccc(C(C(=O)NCC2CCCO2)N(C(=O)CNC(=O)c2cccs2)c2ccc(C)cc2)cc1OC` (stereo not shown): 0.634%.
Under `O=C(/C=C/Nc1ccc(F)c(Cl)c1)c1ccco1` stands 7%; under `CC1(C)Cc2c(sc(NC(=O)c3ccc(C(=O)c4ccccc4)cc3)c2C(N)=O)C(C)(C)N1`, 8.87%; under `COC(=O)CSc1n[nH]c(=S)s1`, 6.49%.
Under `CC1(C)CC(NC(=O)Cc2ccc(Cl)cc2)CC(C)(C)N1` stands 16.7%; under `CC(=O)c1ccc(S(=O)(=O)N2CCC(c3nc4ccccc4[nH]3)CC2)cc1`, -30.2%.
